According to the supplement of paper PMC3334620:
The full ranking holds about 33,000 sequences; the median of “E-score (-0.5 to 0.5)” is about -0.043, and the highest 2% start at about 0.37. The list shows a part of the results.

Biological target: T1, Upc2 (UniProt Q12151)
T1 sequence: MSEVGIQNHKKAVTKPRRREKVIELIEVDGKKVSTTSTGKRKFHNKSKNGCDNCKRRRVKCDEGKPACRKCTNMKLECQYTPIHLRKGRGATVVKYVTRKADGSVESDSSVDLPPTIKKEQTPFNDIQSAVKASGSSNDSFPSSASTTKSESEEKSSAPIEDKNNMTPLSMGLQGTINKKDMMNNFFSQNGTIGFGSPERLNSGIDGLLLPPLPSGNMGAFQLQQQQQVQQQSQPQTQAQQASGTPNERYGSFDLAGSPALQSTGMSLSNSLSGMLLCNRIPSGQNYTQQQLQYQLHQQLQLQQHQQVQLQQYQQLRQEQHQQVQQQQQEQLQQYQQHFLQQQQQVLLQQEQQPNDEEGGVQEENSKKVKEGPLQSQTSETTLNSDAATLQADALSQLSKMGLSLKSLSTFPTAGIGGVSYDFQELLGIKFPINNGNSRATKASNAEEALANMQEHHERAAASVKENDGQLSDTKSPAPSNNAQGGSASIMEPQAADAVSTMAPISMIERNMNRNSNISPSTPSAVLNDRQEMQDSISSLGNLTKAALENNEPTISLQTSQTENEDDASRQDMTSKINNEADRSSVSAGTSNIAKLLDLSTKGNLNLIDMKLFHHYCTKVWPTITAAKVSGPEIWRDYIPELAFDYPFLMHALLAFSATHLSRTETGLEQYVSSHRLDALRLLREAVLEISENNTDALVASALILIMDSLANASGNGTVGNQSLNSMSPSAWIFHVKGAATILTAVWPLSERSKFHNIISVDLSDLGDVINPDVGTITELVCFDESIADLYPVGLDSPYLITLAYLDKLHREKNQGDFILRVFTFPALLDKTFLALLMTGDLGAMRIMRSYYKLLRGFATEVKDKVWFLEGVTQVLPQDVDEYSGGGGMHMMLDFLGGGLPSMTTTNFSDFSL
Test: PBM E-score (8-mer binding enrichment) (E-score (-0.5 to 0.5)); higher = stronger / more preferred TF binding; most listed sequences are background and not binding sites
Conditions: protein concentration: 200 nM; construct: GST-full length
Summary of the method: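 Detection of bound protein used fluorescent anti-GST, with scans normalised by masliner. The proteins were GST-tagged yeast transcription factors applied at about 100-200 nM to universal all-10-mer Agilent arrays made double-stranded by primer extension. Each ungapped eight-base word, pooled with its reverse complement, was scored with an E-score from the Universal PBM Analysis Suite.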

Sequence | PBM E-score
CAGCATTC | -0.11
ATCTGAAC | -0.0198
ACTTCTGG | -0.261
ACTTTGTG | 0.0538
GTTACATA | 0.0177
ACCAAATA | 0.0597
CGCCACGA | 0.0284
GCCTGCAC | -0.357
ACGCGGGA | 0.108
CGTCTACA | 0.0307
AACGGATG | 0.224
GTTCGGTA | 0.173
TGGCCGAA | -0.177
CTCTCATA | -0.0662
ACACCGTA | 0.321
ACTTCGCA | 0.0859
CCTCATCC | -0.322
CAGGTAGC | -0.228
TAATTGTA | 0.0856
AGAACCTC | -0.1
CTGGGGAA | -0.182
ATCATCAC | -0.158
CCGTAGCG | 0.28
TCTCAGAA | -0.17
CAATGCGC | 0.121

Sequence | PBM E-score
TGGGAAAA | -0.0994
AAGCATTA | -0.0439
AATATTGA | 0.0921
TCAAGTGA | -0.0301
CTACGGGC | -0.0221
AGATGACT | -0.19
AATATTCG | 0.221
AGGCCTCG | 0.219
GCAAACGC | 0.25
GACGTGCA | 0.118
CCCTACCC | -0.126
TAGTAGGA | -0.178
ACTAACAA | -0.0788
TCCAACAA | -0.0912
GACGTATC | 0.156
CAATCTCG | 0.0217
AAGGACGA | -0.0591
ATGCTCCA | -0.3
GAATTCGC | 0.138
CGACGCCG | 0.15
AAAAGAGG | 0.076
GCTTTGAC | 0.0261
ACCGGGCC | -0.232
ACCGACAC | 0.184
AGGTATAC | 0.339

Sequence | PBM E-score
CCGACCAC | 0.0689
ACTAGGAC | -0.329
AACTCTGA | -0.0442
AGATCTTG | -0.165
AACCAGAA | 0.0231
GAAAGTGA | -0.189
CTGAATTA | -0.193
CTGCTAGC | -0.416
AAATTACT | -0.0283
AGCGCAAT | -0.0325
CAATATAG | -0.179
CTGCACTA | -0.128
AGGCATAA | -0.104
GTGCACAA | 0.07
ATTGTCTG | 0.0222
ATGGTCGG | 0.0956
AGTACCGC | 0.1
CAGAAAGC | 0.00144
AAGTCCGT | 0.0895
GGTTTAAA | 0.0625
ACGTCGAA | 0.245
CAATTCCA | -0.17
CGTTATGC | 0.0408
CTTACTGA | 0.0118
ATCTACAC | 0.0161

Sequence | PBM E-score
CCCGATAG | -0.0572
ACTTTGTA | -0.0703
CGGCCTAC | -0.162
GAAGTAGA | 0.081
ACAAGCAT | -0.216
ATGCTGAC | -0.0796
CGATGCTC | -0.00541
TCACTGCA | -0.074
TAAACGGA | 0.454
AGCCACAG | -0.208
CCCCTACC | -0.0757
ACAAAAAG | 0.152
ACTTTTAT | -0.158
AATAAGAT | 0.0502
TGGGTACA | -0.0942
TAGCGTGA | 0.0193
ATCATTTG | -0.11
GGGTAATA | -0.0141
CGATACGA | 0.464
CAGCAAAC | 0.132
CCCTACTA | -0.242
GATATGTA | -0.0962
CATTGAAG | -0.151
TTAGCGAA | 0.29
CGGCTCGC | 0.181

Sequence | PBM E-score
ATGCCCGC | 0.0745
CACATGAG | -0.288
CAACTACC | -0.158
CGAGCGCA | 0.223
TAGACGCA | 0.00606
ACTTAAAC | 0.319
GCCAGCAC | -0.284
TCCGGAAA | -0.03
CGCACCCG | 0.141
TCGACGAA | -0.018
GTTAGGAA | -0.00483
AGGGCAAA | -0.0746
GCGCAAAC | 0.192
GCTGCAAC | -0.107
ATGTGTTC | -0.129
AGCGAGGA | 0.144
CATGAAAG | 0.014
CATACGGA | 0.365
CCGGGCGC | -0.144
ACAATTTG | -0.00417
AAACTGTA | 0.192
GGTGGGGA | -0.0568
AGTGTAAT | -0.109
CACTAAAC | 0.213
AAACGGCG | 0.401

Sequence | PBM E-score
CCGGGCGA | -0.135
AAACCGAG | 0.214
ATGACACG | -0.0577
AGCGTCGC | 0.262
AGGACGGA | -0.134
GCATAATA | 0.198
AAGCAGGG | -0.096
ACTACAGC | -0.157
CTGTCCAC | -0.19
AAATATAA | -0.00275
CCACGAGG | -0.0572
TGTTGGAA | -0.0759
CATGCCCC | -0.163
AACACGCA | -0.124
CGTCTCCC | -0.17
AGACTTGA | -0.0254
GCATGCGC | -0.0143
AGTACAAT | 0.0921
CCGAAATC | -0.0366
CGTCTTAC | 0.2
CCCTTACG | 0.224
TGTGCAAA | 0.155
CATATCTA | 9e-05
AGCGGGTA | 0.0449
GGCTCAAC | -0.232

Sequence | PBM E-score
CACTTTAG | -0.302
ATTGAGAC | -0.242
GGATGTAA | 0.0769
GGATTCTA | -0.0488
CTCGTAGC | 0.4
ATCTGTTC | 0.0527
GCAGAGGC | -0.31
AAATAACG | 0.216
ATCGCCTG | -0.322
CGGGCGAG | -0.043
AGACGCAA | -0.209
GGGCAGAA | -0.121
GAGCGTGC | 0.0921
AGCAGATC | -0.0952
ATATTTGC | 0.0538
ATCGCAGG | -0.0887
CTGTCTTA | 0.085
AGACACGG | -0.216
ATGCCCCA | -0.172
CGACTAGC | -0.0855
CAAGGAGG | -0.142
AGAATCCG | 0.0767
